In patent US10308592B2 (priority 2014, dated 2019):

Conditions: room temperature
Method: The maximum solubility of two nitrogen-containing HFE-Hydrides of the present invention was determined in a commonly employed carbonate-based solvent formulation (EC:EMC 3:7 by wt) used in lithium ion battery electrolytes and a similar electrolyte formulation containing 1.0M LiPF6 (a commonly employed electrolyte salt). The solubility of these nitrogen-containing HFE-Hydrides in the two battery electrolyte formulations was compared to the solubility of Novec-7300, a commercially available segregated HFE that has been previously studied as a battery electrolyte cosolvent. […] Thus, the nitrogen-containing HFE-Hydrides of the present invention represent promising battery electrolyte cosolvents that can provide improved formulation flexibility due to their enhanced solubility in commonly used electrolyte formulations.

## COC(F)(F)C(F)N1C(F)(F)C(F)(F)OC(F)(F)C1(F)F (stereo not shown) [Example 1, 2,2,3,3,5,5,6,6-octafluoro-4-(1,2,2-trifluoro-2-methoxy-ethyl)morpholine]
1.0M LiPF6 in EC:EMC 3:7 by Wt
  Solubility of HFE cosolvent (Max Wt % HFE in electrolyte): 22% Wt %
EC:EMC 3:7 by Wt
  Solubility of HFE cosolvent (Max Wt % HFE in electrolyte): >40% Wt %

## FC(F)C(F)(F)COC(F)(F)C(F)N1C(F)(F)C(F)(F)OC(F)(F)C1(F)F (stereo not shown) [Example 2, 2,2,3,3,5,5,6,6-octafluoro-4-[1,2,2-trifluoro-2-(2,2,3,3-tetrafluoropropoxy)ethyl]morpholine]
1.0M LiPF6 in EC:EMC 3:7 by Wt
  Solubility of HFE cosolvent (Max Wt % HFE in electrolyte): 55% Wt %
EC:EMC 3:7 by Wt
  Solubility of HFE cosolvent (Max Wt % HFE in electrolyte): >40% Wt %

Where two headings read alike, the source gives them in different places.
